For 72 sequences, binding signal (log2 normalized intensity) results are on record in article PMC10726135.

The other results are listed elsewhere or left out. At the low end of the ranking the order means little. The protein was read in a cell extract, so binding may be indirect.

This assay addresses T1, HNF4alpha8 (COS-7 nuclear extract) (UniProt P41235-5).
T1 sequence: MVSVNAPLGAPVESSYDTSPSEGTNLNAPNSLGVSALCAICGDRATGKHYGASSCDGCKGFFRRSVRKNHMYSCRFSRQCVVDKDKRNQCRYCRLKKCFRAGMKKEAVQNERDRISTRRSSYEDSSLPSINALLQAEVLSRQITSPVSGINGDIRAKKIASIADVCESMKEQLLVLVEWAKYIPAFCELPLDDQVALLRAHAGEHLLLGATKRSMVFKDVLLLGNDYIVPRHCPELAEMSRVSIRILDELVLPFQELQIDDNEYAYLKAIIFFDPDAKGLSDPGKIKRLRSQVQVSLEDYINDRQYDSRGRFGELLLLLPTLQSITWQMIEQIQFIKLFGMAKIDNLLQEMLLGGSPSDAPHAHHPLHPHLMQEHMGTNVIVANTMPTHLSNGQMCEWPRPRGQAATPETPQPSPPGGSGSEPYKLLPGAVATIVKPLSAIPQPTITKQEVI
Description: protein-binding microarray. The settings on record: COS-7 nuclear extract on double-stranded Agilent 4x180k PBM; binding buffer, salt, pH and temperature not given; high values mean tight binding; double strand, one strand shown; sequences stand for … in …GCCTAGGGAGATTAGAGTATCGGTCGA
Regarding TAAATAAAGTGGTAGCCCACAATCAGTCTG, the binding signal (log2 normalized intensity) was -1.28. For CCACTGTTCTCTCTAGAGAGAACAGATCTT, the binding signal (log2 normalized intensity) came to 0.526. The same measure for TTAGACATGTTTACTTTTGCAAGGTTTGTT: 1.34; for TCCTTCAAAGATTGTGAGACAAGAGAAGAG: -1.36; for AAATCAGAACAGTCTGTGACTTGATCTTTG: 3.2. The same measure for TGCAGCAAAACTTTAGGACTTTGAACCTTG: 9.2. Take TCGGGGCCTGGTCTGCACTCCAGGAAAGAC: the binding signal (log2 normalized intensity) is -0.598. The same measure for CTGGCAAATGAAATGTAATCAGCAAGTTTT: -0.901; for AAGGCTGACCACGGGGGCCGCTCTCCCTCC: -1.32; for CAGGACGTGAAGCAACTAGAACTCTCAGAC: -1.35.

On to CCACTGGTTTGCACACACCAAAGCCCAAGG, for which the binding signal (log2 normalized intensity) was -1.33. Next, CCCTTGGTGTTTAAACACATTTTTTTTTTT: 1.5; TGGGTCGTTGGTGCTCCCCCACCCTGTGTC: 4.44. In the case of CCATGCAAGTTCCCACAGAGCCCACCATGT, the binding signal (log2 normalized intensity) was -1.39. In the case of GTCTGAGTGCTCATGATGGGAAGCCTCAGG, the binding signal (log2 normalized intensity) is -1.35. Turning to ATTAAACATCTTGCCCACATTCACACAATC, the binding signal (log2 normalized intensity) worked out at 0.459. Consider AAAGACGCGGAGCGGGGGACCGAGAGCCGC, for which the binding signal (log2 normalized intensity) is -1.2. The same measure for ACAAAACAGCGTACTGTGCTAAAGAGTGAT: -1.2; for AACCCTGTTCTTGTAGGATTTCCAAGTGGA: 1.66; for GGTATTACAAAGCAATCTACTTTTCTTTTG: 0.285. Next, GTAAACACAGACTTTGGAATCACAATGATA: 2.33. In the case of ATGTTATCATTAGGGAAAATAGTGACCCTG, the binding signal (log2 normalized intensity) is 3.82.

GGTATTGAGGGAGCAAAGGGCATGGAGGAT: the binding signal (log2 normalized intensity) was 3.18. For the sequence TCCATTTCTGCCCCTTGCTCCTGCTTGCTG, the binding signal (log2 normalized intensity) came to 2.24. Turning to GGTAACATCAAAGCCAGGACTTCTAGAGTG, the binding signal (log2 normalized intensity) was -1.41.

As for GGCATATCCAACCTTCTCCCACTTCCCTGC, the binding signal (log2 normalized intensity) is 0.153.

For CCCATTCCTTAGTGCATGGGAACTTCTCAC, the binding signal (log2 normalized intensity) is 0.777. The same measure for TTCTTGCTGCAGCTGGGCTATACAATTCCA: -1.25. The same measure for AAAGGTCTTTGGTGGTGGGGGGTAGCCACT: -0.151. The same measure for CTCAGGCCGACCCCTGCCTGGACTGTCCTA: 2.99; for GCCTTGTGTACTGAGCAGGGTCCAACCCAC: 3.56. For CCGTGGTGTATGATGACGCCACGCCGCTCT, the binding signal (log2 normalized intensity) was -1.28. Turning to GGCTTCCCAACTCCATTATCTCTGTAAAAG, the binding signal (log2 normalized intensity) was 0.272. The same measure for GGATGGACTTTAATCTCCAAGTAACTGAAA: 4.03; for CTCTGTTTGATCAGCTGGTCCTTCAAGTGT: 1.86. Next, GCATAACCAAACAGAGAGAAAGCAGTGACC: 0.322; TTGATGGGCAGCGCGGCGCGCTGGGAAGGC: -1.19. Next, GTGCCCTTACATTTTGCTCTTTGTACCGTT: 5.48; CTGTGAGTCAGGTACCTGCTTCTGCCCCAG: 1.7.

In the case of TTGCATATGCCACAGGGCAAGACACCAAAG, the binding signal (log2 normalized intensity) was -1.23. The same measure for CCTCTGAAAACTTTTACTGGGAAGAGATAA: -0.817. Next, TGGCAGATTAGAGACCTCTAGACTCCAGCT: -0.437; AGAAAGAAACAGGGGATGTTGATTCCCCTG: -1.24. In the case of ATTTACTGAATGAATGTCCAACTTGCCCTG, the binding signal (log2 normalized intensity) stood at 2.48. The same measure for CTCAACCTCCCCCTGGGGACAGGTGTTAAT: 2.27. The same measure for GATAACAGCACATTCCTTAACATGGTTTGC: 0.422. Next, AGAGCACATTCTTCCATATAACCCTTGAAC: 4.39; GAGTTTAGGGACCGCAAATAAAAGAGGGCC: -1.34; GCACAGCAGATGCTGGGCAAAGGGCAAGGC: 4.05.

For the sequence TCCTCCTCCTGTTTGTATTCCTTGTCCTTG, the binding signal (log2 normalized intensity) was determined as 2.11. The same measure for TTGTCCTATGACTCTCTCAACACTGGCTTC: -0.82; for ATTTCACCTTTGGTCTTTGGTGAAACTCCA: 3.44. The same measure for GGGTTTGTTTTTTGCCCTTTGTACCCACAC: 8.41; for TAACATCTTTTCTCAGTTAACTGGAATGAA: 1.44. Next, TAGCCTCTGGGCTGGCTTTAGCTCAGCGGT: -1.38. Take ATCAAAGGCTTCTAGAAGAGGTTAAAGACC: the binding signal (log2 normalized intensity) came to 1.58. The same measure for ATGCACTCATAACTAGGGTTCCAAGACCAA: -1.2; for GATTCCTCTTGAATTGGAAGGCAAAGTTCA: 3.78. Next, TGCCTGCCGGCTCTGAAGAGAACGGCTGAT: -1.2. For the sequence TATTTACATACCTTAGGCTGTGCATATTGG, the binding signal (log2 normalized intensity) stood at 0.994. With TTCAAGCCTGAACAAACATGAGGGACTGGG, the binding signal (log2 normalized intensity) is -1.16.

Turning to GTGTTCCTTTTTCTGTTCAATGGTGCTTTT, the binding signal (log2 normalized intensity) was determined as 2.08. Next, TCCAGCTGTTGGTGACTGACCCTGATCCCT: 3.55; GGTGAGCCATTGGCTGGGGTGTCGGCGAGT: -1.14; TTAAGTTTTCGAGGAGTCAAAAGGTGTATG: 1.24. The same measure for ACCTAGAGCTTCAGACGCCCTATGGCGTCC: -1.31; for TGGGGGGTAGCCACTGACAGGAGGTATGCC: -1.35; for AGGGTGGAAGTCCAACCTTTGCTCACTTGG: 4.28.

On to GACAAATTCCTGGGAACTGCGGACATAGCT, for which the binding signal (log2 normalized intensity) was -1.4. The same measure for CATAGGAGAAACACATAAACCCTGACCCTC: 3. The same measure for TCCTTTGGATCATGTGTCTGAGCAAGTTTC: 1.47. Turning to AATTAGGGAGTAGGGACAGCTAGTCTAGAC, the binding signal (log2 normalized intensity) was -1.36.
